The whole screen tested about 44,000 compounds, of which about 340 (0.77%) were called active. Inconclusive results (about 5%) are left out. Calls follow the shape of the dose curve; as a rule, active = well fitted inhibition curve with a large enough effect; inconclusive = small, poorly fitted or top-dose-only effect; inactive = flat fitted curve, though single readings scatter. Some of the results follow.
Test: Acumen qHTS Assay for Inhibitors of the mTORC1 Signaling Pathway in MEF (Tsc2-/-, p53-/-) Cells: Sytravon;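 also: plate controls were DMSO for no effect and rapamycin for full effect; nearly all actives have a fitted effect of over 50% in size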
Conditions: phospho-rpS6 immunofluorescence/PI, 24 h; series mostly up to 38.3 µM; activity change, negative = inhibition: at the top concentration
Method in brief: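 Readout is phospho-S6 Alexa 488 signal normalized to PI per well, reported as % active cells with thresholds set from rapamycin (7.5 nM) and DMSO controls. Cells: Tsc2-/-, p53-/- MEFs, 24 hrs compound at 37 C; PI cell number serves as viability.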

Activity change, negative = inhibition, inactive:
COc1ccccc1N1CCN(c2ccc(=O)n(CC(=O)NCc3ccc(OC(C)C)cc3)n2)CC1 0.226%
Cc1cccc(-c2nc3scc(CCNS(=O)(=O)c4ccc(Oc5ccccc5)cc4)n3n2)c1 -12.6%
Cc1nn(C)c2c1c(C(F)(F)F)cc(=O)n2CC(=O)NCCC(C)C -7.84%
O=C(Nc1ccc2oc(-c3cccnc3)nc2c1)c1ccc(-c2ccccc2OC(F)(F)F)o1 -2.93%
COc1ccc(-n2nc(C(=O)Nc3cc(OC)c(OC)c(OC)c3)c(=O)n(C)c2=O)cc1 -8.09%
COc1ccc(-c2cc3ccc(O)c(CN4CCC(C)CC4)c3oc2=O)cc1 -12%
CC1=C(c2ccc(C)cc2)S(=O)(=O)NC1=NCCCN1CCN(c2ccccc2F)CC1 0.712%
COc1ccc(-n2nc(C(=O)N3CCN(c4ccc(F)cc4)CC3)c3c4ccccc4n(C)c3c2=O)cc1 1.8%
O=C(O)c1ccc(Nc2nc3ccccc3n3cnnc23)cc1 4.38%
COc1ccc(C2CC(=O)N(Cc3ccc(F)cc3)c3ccccc3S2)cc1OC (stereo not given) -10.6%
CCCCCn1c(=O)[nH]c2cc(C(=O)NCc3ccc(Cl)cc3)ccc2c1=O 4.67%
COc1ccccc1C(=O)NCCn1cc(SCc2ccc(C)cc2)c2ccccc21 -22.5%
COc1ccc(OC)c2sc(N3CCN(C(=O)c4ccc5c(c4)CCCC5)CC3)nc12 0.324%
CCc1ccccc1NS(=O)(=O)c1ccc2c(c1)CCN2C(=O)C1CC1 2.74%
CCc1ccc(-c2nn(CC(=O)NC3CCCCC3)c3c2cnc2ccc(C)cc23)cc1 4.13%
c1ccc(N2CCN(Cc3cccn3-c3nnc(N4CCN(C5CCCCC5)CC4)s3)CC2)cc1 2.24%
O=C(CN1CCN(Cc2cccc(Cl)c2)C1=O)NCc1ccc(F)cc1 -1.34%
CCN(c1ccccc1C)S(=O)(=O)c1ccc(N2CCCCS2(=O)=O)cc1 11.5%
CCOc1ccc(CCNC(=O)c2nn(-c3ccc(OC)c(Cl)c3)c(=O)c3c2c2ccccc2n3C)cc1OCC -7.84%
Cn1c(=O)c2cc(C(=O)NCCCN3CCN(c4cccc(Cl)c4)CC3)sc2c2ccccc21 -0.903%
Cc1nn(-c2ccccc2)c(-n2cccc2)c1C(=O)NCCc1ccc(Cl)cc1 -2.58%
CC(C)Cn1c(=O)c2sccc2n2c(CCCC(=O)NCCc3ccc(Cl)cc3)nnc12 -2.2%
O=C(Nc1ccc(Br)cc1)c1ccc(F)c(S(=O)(=O)N2CCCc3ccccc32)c1 -11.7%
O=C(COc1ccc(Br)cc1Cl)Nc1ncn[nH]1 -3.64%
COc1ccc(OCC(=O)Nc2ccc3c(c2)nc(CCNC(=O)c2ccco2)n3C)cc1 1.52%
CCc1ccc(NC(=O)CSc2nc(-c3ccccc3Cl)nc3c2Cc2c(CO)cnc(C)c2O3)cc1 0.203%
CCc1ccc2nc(N(Cc3cccnc3)C(C)=O)sc2c1 2.25%
CCOc1ccccc1CNC(=O)c1cn(-c2ccc(OC)cc2)c(=O)c2ccccc12 6.81%
COc1cccc(CNC(=O)CSc2n[nH]c(-c3ccccc3Cl)n2)c1OC -7.91%
COc1cccc(C2=C(C(C)=O)Sc3nnc(C4CCCCC4)n3N2C(C)=O)c1 -6.94%
CCOc1ccc(NC(=O)[C@H]2O[C@@H]3OC(C)(C)O[C@@H]3[C@H]3OC(C)(C)O[C@H]32)cc1 -5.9%
Cc1cccc(NC(=O)CSc2nc(=O)n(Cc3ccco3)c3c2CCC3)c1C -2.6%
Cc1cc(C)cc(NC(=O)C(=O)NCCCN2CCOCC2)c1 -10.5%
Cc1ccc2cc3cc(C(=O)N4CCN(c5ccccc5)CC4)oc3nc2c1 -11.5%
O=c1c(N2CCN(c3cccc(Cl)c3)CC2)csc2ccccc12 -10.9%
CCc1nn(CC(=O)NCc2ccccc2Cl)c(=O)c2cc3ccccc3n12 -13.3%
CCOc1ccc(CN(C(=O)c2nc(SC)ncc2Cl)C2CCS(=O)(=O)C2)cc1 (stereo not given) 1.18%
O=C(Nc1nc2ccc(S(=O)(=O)N3CCCC3)cc2s1)c1ccc(F)cc1 3.13%
CC1CCCCN1CCCNC(=O)c1ccc2c(c1)sc1nc(-c3ccc(F)cc3)cn12 (stereo not given) -1.31%
CCc1ccc(Oc2c(C(F)(F)F)oc3c(CN4CCN(CC)CC4)c(O)ccc3c2=O)cc1 -1%
CCOC(=O)c1noc2ncnc(N3CCN(c4cccc(Cl)c4)CC3)c12 1.4%
CCOC(=O)N1CCc2c(sc3c2c(=O)n(-c2ccc(Cl)cc2)c(=O)n3Cc2cccc(OC)c2)C1 -7.97%
COc1ccc(-c2nc3nc(C)cc(N4CCN(c5cccc(C(F)(F)F)c5)CC4)n3n2)cc1 3.34%
COCCCNC(=O)c1ccc(Cn2c(=O)c3ccccc3n(CC(=O)Nc3ccc(C)cc3C)c2=O)cc1 4.09%
CC(C)c1cc(C(=O)NC(C)c2ccccc2)no1 (stereo not given) -5.99%
Cc1cc(C)cc(NC(=O)Cn2nnc(C(=O)NCc3ccccc3Cl)c2N)c1 -9.01%
COc1ccc(CCNC(=O)c2cc3c(s2)-c2c(C)cccc2OC3)c(OC)c1 -5.7%
CCOc1ccc(C(=O)Nc2ccccc2C(=O)OCc2cc(=O)n3nc(C4CC4)sc3n2)cc1 1.04%
Cc1cccc2c1-c1sc(C(=O)NCc3ccc(Cl)cc3)cc1CO2 -3.29%
Cc1cccc(N2CC(c3nc4ccccc4n3CCC3CCCCC3)CC2=O)c1 (stereo not given) 1.28%
CCc1ccc(S(=O)(=O)c2nnn3c2nc(Nc2cc(OC)cc(OC)c2)c2cc(Cl)ccc23)cc1 -2.94%
CCN(Cc1ccccc1)C(=O)c1cc2c(=O)oc3ccc(C)cc3c2s1 -4.29%
CN1C(C(=O)c2ccccc2)=C(NC(=O)c2ccccc2Br)c2ccccc2S1(=O)=O -1.1%
COc1ccc(NC(=O)Nc2cccc(OCc3cc(=O)n4cccc(C)c4n3)c2)c(OC)c1 -0.752%
COCCn1c(C)cc(O)c(C(c2ccc(Cl)cc2)N2CCN(c3ccccc3)CC2)c1=O (stereo not given) 5.25%
Cc1nc2ccc(S(=O)(=O)NC(C(=O)N3CCN(c4ccc(Cl)cc4)CC3)C(C)C)cc2s1 (stereo not given) -6.71%
CCc1ccc(NC(=O)Cc2csc(COc3cccc(C)c3)n2)cc1 -4.83%
O=c1n(Cc2ccc(Cl)cc2)c2ccccc2c2nc(-c3ccccc3)nn12 -10.9%
CCn1c(=O)cc(SCC(=O)NCCc2cccc(C)c2)c2ccccc21 0.555%
O=S(=O)(c1ccc2[nH]c3c(c2c1)CCCC3)N1CCN(c2cccc(C(F)(F)F)c2)CC1 -17.9%
